# Source: the supplement of paper PMC8728848
# The other results are listed elsewhere or left out.
# B1: MIC1 (Toxoplasma gondii), O00834 (protein)
# chain: VGPEAYGEASHSHSPASGRYIQQMLDQRCQEIAAELCQSGLRKMCVPSSRIVARNAVGITHQNTLQWRCFDTASLLESNQENNGVNCVDDCGHTIPCPGGVHRQNSNHATRHEILSKLVEEGVQRFCSPYQASANKYCNDKFPGTIARRSKGFGNNVEVAWRCYEKASLLYSVYAECASNCGTTWYCPGGRRGTSTELDKRHYTEEEGIRQAIGSVDSPCSEVEVCLPKDENPPLCLDESGQISRT
# Columns and labels:
# Assay in all cases: glycan array binding signal (z-score within array); higher = stronger binding
# Settings in all cases: glycan notation: IUPAC condensed, linker removed
# [1] = target: Neu5Ac(a2-6)Gal(b1-4)GlcNAc(b1-6)[Gal(b1-3)GlcNAc(b1-3)]Gal(b1-4)Glc
# Outline: (§1)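 Columns mapping to the same glycan were averaged after glycan names were converted to IUPAC-condensed notation. The data come from 3228 arrays in the Consortium for Functional Glycomics database, limited to those with an available protein sequence. Binding is reported as a within-array Z-score averaged across arrays of one protein sequence and across linkers.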
# [2] = target: Neu5Ac(a2-6)Gal(b1-4)[Fuc(a1-3)]GlcNAc(b1-3)Gal(b1-4)Glc
# Outline: as §1
# Neu5Ac(a2-6)GalNAc = target: Neu5Ac(a2-6)GalNAc
# Outline: as §1
# Neu5Ac(a2-8)Neu5Ac = target: Neu5Ac(a2-8)Neu5Ac
# Outline: as §1
# [3] = target: Neu5Ac(a2-8)Neu5Ac(a2-3)Gal(b1-3)GalNAc(b1-4)[Neu5Ac(a2-3)]Gal(b1-4)Glc
# Outline: as §1
# [4] = target: Neu5Ac(a2-8)Neu5Ac(a2-3)Gal(b1-3)GalNAc(b1-4)[Neu5Ac(a2-8)Neu5Ac(a2-3)]Gal(b1-4)Glc
# Outline: as §1
# [5] = target: Neu5Ac(a2-8)Neu5Ac(a2-3)Gal(b1-4)Glc
# Outline: as §1
# [6] = target: Neu5Ac(a2-8)Neu5Ac(a2-3)[Gal(b1-3)GalNAc(b1-4)]Gal(b1-4)Glc
# Outline: as §1
# [7] = target: Neu5Ac(a2-8)Neu5Ac(a2-3)[GalNAc(b1-4)]Gal(b1-4)Glc
# Outline: as §1
# [8] = target: Neu5Ac(a2-8)Neu5Ac(a2-8)Neu5Ac
# Outline: as §1
# [9] = target: Neu5Ac(a2-8)Neu5Ac(a2-8)Neu5Ac(a2-8)Neu5Ac
# Outline: as §1
# [10] = target: Neu5Ac(a2-8)Neu5Ac(a2-8)Neu5Ac(a2-8)Neu5Ac(a2-8)Neu5Ac
# Outline: as §1
# [11] = target: Neu5Ac(a2-8)Neu5Ac(a2-8)Neu5Ac(a2-8)Neu5Ac(a2-8)Neu5Ac(a2-8)Neu5Ac
# Outline: as §1
# [12] = target: Neu5Ac(a2-8)Neu5Ac(a2-8)Neu5Ac(a2-8)Neu5Ac(a2-8)Neu5Ac(a2-8)Neu5Ac(a2-8)Neu5Ac
# Outline: as §1
# [13] = target: Neu5Ac(a2-8)Neu5Ac(a2-8)Neu5Ac(a2-8)Neu5Ac(a2-8)Neu5Ac(a2-8)Neu5Ac(a2-8)Neu5Ac(a2-8)Neu5Ac
# Outline: as §1
# [14] = target: Neu5Ac(a2-8)Neu5Ac(a2-8)Neu5Ac(a2-8)Neu5Ac(a2-8)Neu5Ac(a2-8)Neu5Ac(a2-8)Neu5Ac(a2-8)Neu5Ac(a2-8)Neu5Ac
# Outline: as §1
# [15] = target: Neu5Ac(a2-8)Neu5Ac(a2-8)Neu5Ac(a2-8)Neu5Ac(a2-8)Neu5Ac(a2-8)Neu5Ac(a2-8)Neu5Ac(a2-8)Neu5Ac(a2-8)Neu5Ac(a2-8)Neu5Ac
# Outline: as §1
# [16] = target: Neu5Ac(a2-8)Neu5Ac(a2-8)Neu5Ac(a2-8)Neu5Ac(a2-8)Neu5Ac(a2-8)Neu5Ac(a2-8)Neu5Ac(a2-8)Neu5Ac(a2-8)Neu5Ac(a2-8)Neu5Ac(a2-8)Neu5Ac
# Outline: as §1
# [17] = target: Neu5Ac(a2-9)Neu5Ac(a2-3)Gal(b1-4)Glc
# Outline: as §1
# Neu5Ac(b2-3)Gal(b1-4)Glc = target: Neu5Ac(b2-3)Gal(b1-4)Glc
# Outline: as §1
# Neu5Ac(b2-6)Gal(b1-4)Glc = target: Neu5Ac(b2-6)Gal(b1-4)Glc
# Outline: as §1
# [18] = target: Neu5Ac9Ac(a2-6)Gal(b1-4)GlcNAc
# Outline: as §1
# [19] = target: Neu5Gc(a2-3)Gal(b1-3)GlcNAc(b1-3)Gal(b1-4)Glc
# Outline: as §1
# Neu5Gc(a2-3)Gal(b1-4)Glc = target: Neu5Gc(a2-3)Gal(b1-4)Glc
# Outline: as §1
# [20] = target: Neu5Gc(a2-3)Gal(b1-4)[Fuc(a1-3)]GlcNAc(b1-3)Gal
# Outline: as §1
# [21] = target: Neu5Gc(a2-3)[GalNAc(b1-4)]Gal
# Outline: as §1
# [22] = target: Neu5Gc(a2-6)Gal(b1-3)GlcNAc(b1-3)Gal(b1-4)Glc
# Outline: as §1
# [23] = target: Neu5Gc(a2-6)Gal(b1-4)GlcNAc(b1-2)Man(a1-3)[Neu5Gc(a2-6)Gal(b1-4)GlcNAc(b1-2)Man(a1-6)]Man(b1-4)GlcNAc(b1-4)GlcNAc
# Outline: as §1
# Neu5Gc(a2-6)GalNAc = target: Neu5Gc(a2-6)GalNAc
# Outline: as §1
# Rha(a1-6)Glc = target: Rha(a1-6)Glc
# Outline: as §1
# [24] = target: Xyl(a1-6)Glc(b1-4)[Xyl(a1-6)]Glc(b1-4)[Xyl(a1-6)]Glc(b1-4)Glc
# Outline: as §1
# [25] = target: Xyl(b1-2)[Man(a1-3)][Man(a1-6)]Man(b1-4)GlcNAc(b1-4)GlcNAc
# Outline: as §1
# [26] = target: Xyl(b1-2)[Man(a1-3)][Man(a1-6)]Man(b1-4)GlcNAc(b1-4)[Fuc(a1-3)]GlcNAc
# Outline: as §1
# [27] = target: Xyl(b1-4)Xyl(b1-4)Xyl(b1-4)Xyl(b1-4)Xyl
# Outline: as §1
# [28] = target: Xyl(b1-4)Xyl(b1-4)Xyl(b1-4)Xyl(b1-4)Xyl(b1-4)Xyl
# Outline: as §1
binder,measurement,setting,value
B1,glycan array binding signal (z-score),[1],-0.373
same,glycan array binding signal (z-score),[2],-0.412
same,glycan array binding signal (z-score),Neu5Ac(a2-6)GalNAc,0.975
same,glycan array binding signal (z-score),Neu5Ac(a2-8)Neu5Ac,-0.43
same,glycan array binding signal (z-score),[3],1.68
same,glycan array binding signal (z-score),[4],-0.411
same,glycan array binding signal (z-score),[5],-0.451
same,glycan array binding signal (z-score),[6],-0.443
same,glycan array binding signal (z-score),[7],-0.44
same,glycan array binding signal (z-score),[8],-0.354
same,glycan array binding signal (z-score),[9],0.178
same,glycan array binding signal (z-score),[10],1.04
same,glycan array binding signal (z-score),[11],0.202
same,glycan array binding signal (z-score),[12],0.074
same,glycan array binding signal (z-score),[13],-0.072
same,glycan array binding signal (z-score),[14],-0.104
same,glycan array binding signal (z-score),[15],-0.247
same,glycan array binding signal (z-score),[16],-0.322
same,glycan array binding signal (z-score),[17],-0.386
same,glycan array binding signal (z-score),Neu5Ac(b2-3)Gal(b1-4)Glc,-0.478
same,glycan array binding signal (z-score),Neu5Ac(b2-6)Gal(b1-4)Glc,-0.475
same,glycan array binding signal (z-score),[18],-0.443
same,glycan array binding signal (z-score),[19],2.33
same,glycan array binding signal (z-score),Neu5Gc(a2-3)Gal(b1-4)Glc,2.13
same,glycan array binding signal (z-score),[20],-0.125
same,glycan array binding signal (z-score),[21],4.78
same,glycan array binding signal (z-score),[22],2.08
same,glycan array binding signal (z-score),[23],0.198
same,glycan array binding signal (z-score),Neu5Gc(a2-6)GalNAc,4.8
same,glycan array binding signal (z-score),Rha(a1-6)Glc,-0.287
same,glycan array binding signal (z-score),[24],-0.287
same,glycan array binding signal (z-score),[25],-0.287
same,glycan array binding signal (z-score),[26],-0.287
same,glycan array binding signal (z-score),[27],-0.287
same,glycan array binding signal (z-score),[28],-0.287
